In PMC3667135:
Results are given in words; binding and its absence hold for the method and conditions named. For part of these data: In cells and extracts the contact can be indirect. Some entries that bind do so weakly or less than the wild type. Sequences can lack the tags named with a protein.

B1: Recombinant PFV Gag 1–310 with C-terminal MBP and His tag (E. coli) (domain or fragment, UniProt P14349 1-310)
chain: MASGSNVEEYELDVEALVVILRDRNIPRNPLHGEVIGLRLTEGWWGQIERFQMVRLILQDDDNEPLQRPRYEVIQRAVNPHTMFMISGPLAELQLAFQDLDLPEGPLRFGPLANGHYVQGDPYSSSYRPVTMAETAQMTRDELEDVLNTQSEIEIQMINLLELYEVETRALRRQLAERSSTGQGGISPGAPRSRPPVSSFSGLPSLPSIPGIHPRAPSPPRATSTPGNIPWSLGDDSPPSSSFPGPSQPRVSFHPGNPFVEEEGHRPRSQSRERRREILPAPVPSAPPMIQYIPVPPPPPIGTVIPIQHI
B2: PFV Gag 1–310 CLEGHH (domain or fragment, UniProt P14349 1-310)
chain: B1 chain

What was measured:
[1] = target: T1, Env-LP-GST wt (PFV Env aa 1–60 with C-terminal linker and GST, mammalian expression) (prototype foamy virus (PFV)) (UniProt P14351); assay: pull-down; GST-tagged Env bait (or control) and Gag prey from separately transfected 293T cultures; 450 ul of each precleared lysate mixed with glutathione-sepharose beads, 2 h at 4°C; lysis buffer 50 mM Tris/HCl pH 7.4, 500 mM NaCl, 5 mM EDTA, 1 mM DTT, 5% glycerol, 1% Triton; washes with 150 mM NaCl, 0.1% Triton; Western blot (anti-HA or anti-Gag, anti-GST)
T1 sequence: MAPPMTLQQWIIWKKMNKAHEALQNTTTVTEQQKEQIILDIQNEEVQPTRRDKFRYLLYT

[2] = target: T2, Recombinant PFV Env-LP-GST wt (PFV Env aa 1–60, C-terminal linker, GST and deca-His tag, E. coli) (prototype foamy virus (PFV)) (UniProt P14351); assay: pull-down; both partners affinity purified from E. coli: bait (5 ug) and prey (200 ug) in 900 ul cold pull-down-assay buffer with glutathione-sepharose beads, 2 h at 4°C; Western blot (anti-Gag, anti-GST); both purified
T2 sequence: T1 sequence

[3] = target: T1, Env-LP-GST wt (PFV Env aa 1–60 with C-terminal linker and GST, mammalian expression) (prototype foamy virus (PFV)); assay: pull-down; GST-tagged Env bait in 293T lysate (euk.), Gag-MBP-His prey affinity purified from E. coli (prok.); glutathione-sepharose beads, 2 h at 4°C; Western blot (anti-Gag, anti-GST); only the binder purified
[4] = target: T1, Env-LP-GST wt (PFV Env aa 1–60 with C-terminal linker and GST, mammalian expression) (prototype foamy virus (PFV)); assay: pull-down; GST-tagged Env bait (or control) and Gag prey from separately transfected 293T cultures; 450 ul of each precleared lysate mixed with glutathione-sepharose beads, 2 h at 4°C; lysis buffer 50 mM Tris/HCl pH 7.4, 500 mM NaCl, 5 mM EDTA, 1 mM DTT, 5% glycerol, 1% Triton; washes with 150 mM NaCl, 0.1% Triton; Western blot (anti-HA or anti-Gag, anti-GST); remark: listed apart in the source
[5] = target: T2, Recombinant PFV Env-LP-GST wt (PFV Env aa 1–60, C-terminal linker, GST and deca-His tag, E. coli) (prototype foamy virus (PFV)); assay: pull-down; GST-tagged Env bait affinity purified from E. coli (prok.), Gag 1–310 CLEGHH prey in 293T lysate (euk.); glutathione-sepharose beads, 2 h at 4°C; Western blot (anti-Gag, anti-GST); only the target purified

Molecule | binding [1] | also measured
PFV Gag 1–129 CLEGHH (from UniProt P14349 1-129) (domain or fragment) | no binding | 
PFV Gag 1–155 CLEGHH (from UniProt P14349 1-155) (domain or fragment) | no binding | 
PFV Gag 1–180 CLEGHH (from UniProt P14349 1-180) (domain or fragment) | binds | 
PFV Gag 1–295 CLEGHH (from UniProt P14349 1-295) (domain or fragment) | binds | 
PFV Gag 1–350 CLEGHH (from UniProt P14349 1-350) (domain or fragment) | binds | 
PFV Gag 1–450 CLEGHH (from UniProt P14349 1-450) (domain or fragment) | binds | 
PFV Gag 6–450 CLEGHH (from UniProt P14349 6-450) (domain or fragment) | binds | 
PFV Gag 11–450 CLEGHH (from UniProt P14349 11-450) (domain or fragment) | binds | 
PFV Gag 16–450 CLEGHH (from UniProt P14349 16-450) (domain or fragment) | no binding | 
PFV Gag 21–450 CLEGHH (from UniProt P14349 21-450) (domain or fragment) | no binding | 
PFV Gag 31–450 CLEGHH (from UniProt P14349 31-450) (domain or fragment) | no binding | 
PFV Gag 41–450 CLEGHH (from UniProt P14349 41-450) (domain or fragment) | no binding | 
PFV Gag 130–295 CLEGHH (from UniProt P14349 130-295) (domain or fragment) | no binding | 
Recombinant PFV Gag 41–310 with C-terminal MBP and His tag (E. coli) (from UniProt P14349 41-310) (domain or fragment) |  | binding [2]: no binding (tested: bait 5 ug, prey 200 ug in 900 ul); binding [3]: no binding
B1 |  | binding [3]: binds
B2 |  | binding [4]: binds; binding [5]: binds
